# Data as given in the supplement of paper PMC4967469.
# A lower IC50 marks a more sensitive line; where the fit passes the top or lowest dose, that dose stands as a limit. AUC, from the same fit, is the share of area under the viability curve across the 256-fold dose range; the more sensitive the line, the further below 1. For part of these data: Any top dose called inferred is not printed in the source and was worked back from the curve model.
# Legend:
# Assay in all cases: Viability of human cancer cell lines after 72 h of drug (GDSC screen)
# BMX-IN-1 (QL-XII-61) = compound: C=CC(=O)Nc1cc(-n2c(=O)ccc3cnc4ccc(-c5ccc(NS(C)(=O)=O)cc5)cc4c32)ccc1C [BMX-IN-1 (QL-XII-61)]; conditions: top dose 10 µM; top dose inferred
# Method: (§1)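 Human cancer cell lines in 384-well plates, medium with 10% serum, drug for 72 h over a 256-fold dose range (nine 2-fold or five 4-fold steps up to the top dose). Adherent lines were fixed and stained with the nucleic acid dye Syto60, suspension lines read with resazurin; signal relative to control wells, capped at 0 and 100%. One two-parameter sigmoid per drug and line, fitted in a mixed model over all curves with the slope shared within a line.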
# CCT018159 = compound: CCc1cc(-c2n[nH]c(C)c2-c2ccc3c(c2)OCCO3)c(O)cc1O [CCT018159]; conditions: top dose 10 µM; top dose inferred
# Method: as §1
# UNC1215 = compound: O=C(c1ccc(C(=O)N2CCC(N3CCCC3)CC2)c(Nc2ccccc2)c1)N1CCC(N2CCCC2)CC1 [UNC1215]; conditions: top dose 1 µM; top dose inferred
# Method: as §1
# Vismodegib = compound: CS(=O)(=O)c1ccc(C(=O)Nc2ccc(Cl)c(-c3ccccn3)c2)c(Cl)c1 [Vismodegib]; conditions: top dose 10 µM; top dose inferred
# Method: as §1
# 17-AAG = compound: C=CCNC1=C2C[C@@H](C)C[C@H](OC)[C@H](O)[C@@H](C)/C=C(\C)[C@H](OC(N)=O)[C@@H](OC)/C=C\C=C(/C)C(=O)NC(=CC1=O)C2=O [17-AAG]; conditions: top dose 1 µM
# Method: as §1
# TG101348 = compound: Cc1cnc(Nc2ccc(OCCN3CCCC3)cc2)nc1Nc1cccc(S(=O)(=O)NC(C)(C)C)c1 [TG101348]; conditions: top dose 10.24 µM
# Method: as §1
# VX-11e = compound: Cc1cnc(Nc2ccc(F)cc2Cl)nc1-c1c[nH]c(C(=O)N[C@H](CO)c2cccc(Cl)c2)c1 [VX-11e]; conditions: top dose 5.12 µM; top dose inferred
# Method: as §1
# BIX02189 = compound: CN(C)Cc1cccc(N=C(c2ccccc2)c2c(O)[nH]c3cc(C(=O)N(C)C)ccc23)c1 [BIX02189]; conditions: top dose 20 µM; top dose inferred
# Method: as §1
# OSI-027 = compound: COc1cccc2cc(-c3nc([C@H]4CC[C@H](C(=O)O)CC4)n4ncnc(N)c34)[nH]c12 [OSI-027]; conditions: top dose 20 µM
# Method: as §1
# Dimethyloxalylglycine = compound: COC(=O)CNC(=O)C(=O)OC [Dimethyloxalylglycine]; conditions: top dose 4000 µM; top dose inferred
# Method: as §1
Cell Line,AUC (BMX-IN-1 (QL-XII-61)),IC50 (BMX-IN-1 (QL-XII-61)) [µM],AUC (CCT018159),IC50 (CCT018159) [µM],AUC (UNC1215),IC50 (UNC1215) [µM],AUC (Vismodegib),IC50 (Vismodegib) [µM],AUC (17-AAG),IC50 (17-AAG) [µM],AUC (TG101348),IC50 (TG101348) [µM],AUC (VX-11e),IC50 (VX-11e) [µM],AUC (BIX02189),IC50 (BIX02189) [µM],AUC (OSI-027),IC50 (OSI-027) [µM],AUC (Dimethyloxalylglycine),IC50 (Dimethyloxalylglycine) [µM]
"Jurkat (T-cell leukaemia, suspension)",0.825,4.62,0.984,> 10,0.987,> 1,0.989,> 10,0.989,> 1,–,–,–,–,–,–,–,–,–,–
"EW-22 (Ewing sarcoma, adherent)",0.911,> 10,0.964,> 10,0.987,> 1,0.988,> 10,0.922,> 1,–,–,–,–,–,–,–,–,–,–
"FLO-1 (oesophagus, adherent)",0.948,> 10,0.901,> 10,0.97,> 1,0.95,> 10,0.502,0.0637,0.777,6.16,0.935,> 5.12,0.796,14.5,0.683,5.15,–,–
"ZR-75-30 (breast, adherent)",0.981,> 10,0.922,> 10,0.981,> 1,0.983,> 10,0.752,0.5,–,–,–,–,–,–,–,–,–,–
"SNU-C5 (large intestine, adherent)",0.955,> 10,0.986,> 10,0.984,> 1,0.965,> 10,0.696,0.236,0.935,> 10.2,0.866,> 5.12,0.977,> 20,0.898,> 20,–,–
"SK-GT-4 (oesophagus, adherent)",0.958,> 10,0.852,> 10,0.977,> 1,0.976,> 10,0.466,0.0494,0.811,7.13,0.914,> 5.12,0.982,> 20,0.415,0.692,–,–
"NCI-H508 (large intestine, semi-adherent)",0.964,> 10,0.963,> 10,0.961,> 1,0.915,> 10,0.583,0.123,–,–,–,–,–,–,–,–,–,–
"JHOS-3 (ovary, adherent)",0.861,> 10,0.975,> 10,0.982,> 1,0.984,> 10,0.876,> 1,0.922,> 10.2,0.894,> 5.12,0.905,> 20,0.747,7.97,–,–
"SK-MG-1 (glioma, adherent)",0.955,> 10,0.945,> 10,0.986,> 1,0.987,> 10,0.596,0.115,0.872,9.93,0.98,> 5.12,0.974,> 20,0.987,> 20,–,–
"CL-34 (large intestine, adherent)",0.931,> 10,0.987,> 10,0.979,> 1,0.984,> 10,0.876,> 1,–,–,–,–,–,–,–,–,–,–
"ESO26 (oesophagus, adherent)",0.909,> 10,0.96,> 10,0.988,> 1,0.989,> 10,0.342,0.0234,0.797,4.53,0.919,> 5.12,0.948,> 20,0.723,5.12,–,–
"RCC-FG2 (kidney, adherent)",0.979,> 10,0.955,> 10,0.958,> 1,0.981,> 10,0.782,0.546,0.725,3.37,0.959,> 5.12,0.908,> 20,0.456,0.916,–,–
"OV-7 (ovary, adherent)",0.967,> 10,0.962,> 10,0.943,> 1,0.893,> 10,0.644,0.193,0.845,> 10.2,0.968,> 5.12,0.845,> 20,0.568,2.11,–,–
"MDA-MB-468 (breast, adherent)",0.985,> 10,0.946,> 10,0.985,> 1,–,–,0.978,> 1,0.931,> 10.2,0.963,> 5.12,0.957,> 20,0.387,0.62,0.9,> 4000
"KATOIII (stomach, semi-adherent)",0.988,> 10,0.965,> 10,0.983,> 1,0.988,> 10,0.603,0.117,–,–,–,–,–,–,–,–,–,–
